The supplement of paper PMC11417369
This is one part of the list.

The sequences below were run on PF3D7_0420300 AP2 domain 1 (GST-tagged) (assay: gcPBM binding intensity (ln(normalized median fluorescence intensity)); higher = stronger DNA binding).
Outline: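 Each value is the highest Masliner-normalised natural-log median intensity across replicate spots of either orientation of a probe. The probes were primer-extended double-stranded 36-bp intergenic genomic sequences on an Agilent 4 × 180k array, alongside negative controls, exposed for 1 h to GST-tagged P. falciparum DNA-binding domains expressed in E. coli. Bound protein was picked up with Alexa488 anti-GST antibody and scanned at 488 nm.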

Row | Sequence | gcPBM binding intensity (ln)
1 | CACGCACGCAGACACACACACACACGCACATATATA [CACACA_site6303] | 10.3
2 | ACAACAATTCACTTGATGCACTAACCAAAAAAATAA | 9.11
3 | AAAAAAATAATCATCACACACGGAGAATGTCCAATA [CACACA_site5305] | 9.6
4 | ATTAAAATATAAGTCACACATATATATATATATATA [CACACA_site6145] | 9.08
5 | TATTTTTTTTTATTTTTTTTTATTTTGTTTTTTTAT [TGCATGCA_negctrl_site315] | 9.34
6 | ATATATTTTCCTTCAAGTACACATATAAATGTGTAT [XGTACX_site6633] | 9.28
7 | ACATATATTTTTTTTTGTACATATAAATATATATAT [XGTACX_site6491] | 9.32
8 | AATATAATAATATTTTGTACATATCCTATGTATGAG [XGTACX_site8601] | 9.21
9 | AACGTAAAACATATCTATCAAAATAAATCATTAATC [TGCATGCA_negctrl_site68] | 9.33
10 | AATGGAAATTTTTCTTGTACACATATATGACATGTT [XGTACX_site1691] | 9.19
11 | TTTTTTTTTACTGCATGTACTTGATGTAAATAAATT [XGTACX_site3045] | 9.2
12 | AATATGACGTAGTGGTGTACACACATGGTACCTTTA [XGTACX_site3147] | 9.63
13 | TATAGAATAATCTATAAACACACAAACACAACAAAA [CACACA_site9374] | 9.7
14 | TTAGAACTATTTTATACATGCAGTTATTTAATACTT [TGCATGCA_site1039] | 9.17
15 | TTATAAATATAATTTTGTACATATATATATATATAC [XGTACX_site5064] | 9.13
16 | CACATATAAATATTAACACACATAATGAGTTATATA [CACACA_site7316] | 9.33
17 | AAGAAAAAAAAAAAAAGTACATGCAATATGGATCTT [XGTACX_site3106] | 9.62
18 | TTATACCATATTTATAGTACGTACAAATAAATCAAT [XGTACX_site4975] | 9.24
19 | AAACAACATATATTAATATGTACATATATATAGATA [GTGCAC_negctrl_site229] | 9.4
20 | AATAATTGTTAAAGCTGTACAATACTTATATAAGAA [XGTACX_site5729] | 9.24
21 | TTTTTATTGTTATAGTTATAATATATTATTTGATTA [XGTACX_negctrl_site27] | 9.26
22 | TTTTTTTTTTTTGTAACACACAATAATATAACATTA [CACACA_site3411] | 9.23

Row | Sequence | gcPBM binding intensity (ln)
23 | AATGTTTATTAACATTGTACTTATAATATGTCACAA [XGTACX_site2974] | 9.01
24 | AATAATAAAGATCAATGTACATAATAAAAAAAAAAA [XGTACX_site2692] | 9.34
25 | TATCATGGGTGTATTTCACACACGGATAATCATTTA [CACACA_site8211] | 9.31
26 | AAATAATGGTTAGCTACACACAAAGCATTTTTTGAA [CACACA_site1016] | 9.5
27 | TTTTAAAAAGATCATTAAAAAAAAAAAAAGAACAAA [CACACA_negctrl_site528] | 9.11
28 | ATAATATAACAATACGCACACGTATACAAAAAAAAA [CACACA_site5703] | 9.46
29 | AAAATACAAACAAGTGGTACTGTTTATAAATGGTTG [XGTACX_site1503] | 9.36
30 | TGTCTTGTAAATTATTGTACTATTTAAAGTATACAA [XGTACX_site7864] | 9.05
31 | TTGTATATATTTATATGTACATATATTACTTTTGCT [XGTACX_site2449] | 9.17
32 | TATCCTAACTTTAGATGTACACAAATAAAAAAAAAA [XGTACX_site4491] | 8.89
33 | CCATATAAAATATAAAAACACACGTATATATACATA [CACACA_site1511] | 9.54
34 | TGTACATATATATAGATATATATAGATATATATATA [CACACA_negctrl_site1678] | 9.11
35 | ACAAAATGTAGAAAATGTACAAAATTAACAAAAGAA [XGTACX_site5019] | 9.59
36 | ATTCAATCTTTTAATACACACAATTTATTTCAAAAC [CACACA_site835] | 9.34
37 | GTGAAATATGCAAACACACACGAGAAAAATGTATAT [CACACA_site7488] | 9.74
38 | TTTTTGCCATATTACACACACACATGTAAACCCCCT [CACACA_site1647] | 10.1
39 | CAAAACAAAACGTATGCACACAATTAATATATTAAA [CACACA_site3405] | 9.53
40 | TATTTTTTTCTTACATACTAATTTGGTACTCACATA [TGCATGCA_negctrl_site81] | 9.23
41 | AAATAAATCTTATGCACACAAATAATTAATTAAACA [CACACA_site1693] | 9.43
42 | AGAGTTCTCATATGCACACAAAAAACTTTCATTTAT [CACACA_site45] | 9.3
43 | TAAATAAGCACATACACACATACATACATACATAAA [CACACA_site4017] | 9.87
44 | AACCCCGTGGAAATATGTACATATAAATATATAAAT [XGTACX_site2094] | 9.27

Row | Sequence | gcPBM binding intensity (ln)
45 | AATATCCACATTAGGAGTACACAGCTAACTGTTTGA [XGTACX_site3357] | 9.21
46 | TTGATTACACTGAAGTGTACATATATATATATATAT [XGTACX_site3532] | 9.35
47 | AAATAATAAAAAAAATGTACACGTAAATATTATATT [XGTACX_site8125] | 9.51
48 | TTTTATATAAAATCGTGTACATACCATTTCCTATTA [XGTACX_site5159] | 9.28
49 | AAAAAAAAAAGAAACACACACATTTGTATATAATAT [CACACA_site2078] | 9.93
50 | CATATAAAAATGTGCACACACACACCCATATATATT [CACACA_site1526] | 10.2
51 | AAAATTAATAAATAAACACACATATATATATATATA [CACACA_site2598] | 9.31
52 | TTAAAAAAATATAATACACACCAAAAATATGCACAT [CACACA_site5209] | 9.8
53 | TAATAATTTATAATAGTGCATTTGATTTTAAAAATA | 8.83
54 | TTTTTATGGTAAATAAAAATATCTCCCTCCTTAATT [CACACA_negctrl_site1352] | 9.04
55 | ATTTACATAAATTGCATATATCGATGTAAATAAATA [CACACA_negctrl_site1150] | 9.1
56 | TCTTTTTAAACTAATAGTACATATATATTAATAAAT [XGTACX_site4217] | 8.99
57 | ATATATATATATATATGTACATATATTTATTTATTG [XGTACX_site6267] | 9.13
58 | CATTTATTTTTGTTCTGTACATAAAGATGAACAAAA [XGTACX_site6797] | 8.81
59 | AAAATAAAATATTTCTGTACTTATAACTATTCTATA [XGTACX_site8007] | 9.14
60 | ATAAAATGATAAATTTGTACACAAAAAAAAAAAAAA [XGTACX_site964] | 9.03
61 | GGGTATACAAATAAACGTACAAACTCATAAAAAAAA [XGTACX_site3191] | 9.43
62 | CATATATAACAATTCTCACACATAAAAAAAAAAAAT [CACACA_site4564] | 9.53
63 | AGTGGAATGTATGATTTTCATTCCTTAAAATTTTAA [GTGCAC_negctrl_site521] | 8.94
64 | AATACTAAAAAGTGTACACATACATAAAAAATTGCA [CACACA_site5620] | 9.51
65 | AAGAAAAAAGTTATTAGTACACATTATAATAAAAAG [XGTACX_site3527] | 9.43
66 | TATTGATTTATAAACACACACTCGAAGATGTTTAAC [CACACA_site4760] | 9.34

Row | Sequence | gcPBM binding intensity (ln)
67 | TAATTTTCTTTTTATCGTTTTTTTTTTTTTTTTTTT [XGTACX_negctrl_site432] | 9.02
68 | TATATATATGTAAATCGTACAAATTATATATATCAT [XGTACX_site2821] | 9.26
69 | TATATCTCATAGTATACACACACACCCACCCACATA [CACACA_site8513] | 10.3
70 | CATTATGTTGTAAATACACACATACATATACATACA [CACACA_site8143] | 9.49
71 | ATAAATATGTAAAAAACATGCAAAAAATTAAAGACA [TGCATGCA_site912] | 9.58
72 | AACGCACATATATTTATGTATATATATATATATATA [GTGCAC_negctrl_site478] | 9.3
73 | GGAAACAAAAAATATATACACACTAAACATAAAAAA [CACACA_site20] | 9.85
74 | TCATAGTAGAAACACACACACACACCCATATATATA [CACACA_site1737] | 10.2
75 | TTATTACATAACAATATACACACTATTGATTAAAGA [CACACA_site2933] | 9.39
76 | TAAAAAAAAAGAAGCTGTACTAAAAAATTTATATTA [XGTACX_site7408] | 8.9
77 | GTTATTAAACAGAAAAGTACATATGTATATTAAAAT [XGTACX_site3724] | 9.42
78 | TTATTAAATAAAATCATGCACACAATATATATTTTA [CACACA_site2496] | 9.2
79 | AAATTCATAAAAATATTTTATAATTATATATAGAAT [TGCATGCA_negctrl_site343] | 9.06
80 | GGGTTTTTTATTAATACATGCATGGAAACGCACTAT [TGCATGCA_site1000] | 9.35
81 | AAGAAAAACAATGAGATAAAGAAGAGAAAATATGTC [TGCATGCA_negctrl_site415] | 9.91
82 | ATATATATATAATTTGTACACACAAATATGCATATA [CACACA_site9136] | 9.45
83 | ATTGAATTCCAACTGGTGCACCAGTAAGATTGAAAA [GTGCAC_site9895] | 9.03
84 | TAAAAAATAAATATATGTACATATTTATTTTTTTTT [XGTACX_site850] | 9.01
85 | ATATTTTTTTTTTCGTGTACGCATAAATATATCTAA [XGTACX_site3360] | 9.24
86 | TAGATAAACAAGAAATGTACAAACGTAAATATGTTC [XGTACX_site2373] | 9.51
87 | ATATATTATTTCTAGTGTACATACCCATATATAATA [XGTACX_site8902] | 9.46
88 | ATAAATAAGATATATACACACATATCTATACATATT [CACACA_site6369] | 9.58
